# Measurements published in PubChem BioAssay.
# Inconclusive results, whose numbers are uncertain, are shown with a selection of clear calls. The source made the active and inactive calls.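 The calls were made as follows: active = viability at or under a set limit in both replicates, limit being median viability minus 3 SD (cut at about 48% in these data, passing the limit was not always enough); inconclusive = at or under the limit in just one replicate; inactive = at or above the limit in both replicates.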
# Assay: H69AR cell proliferation blockers – human, duplicate replicates, primary screen (AID 580);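 also: 100% = mean luminescence of untreated wells and 0% = no signal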
# Conditions: H69AR lung tumor cells viability, ATP luminescence, 72 h; at 10 µM; active compounds read low
row,SMILES,viability
1,Cc1[nH]nc(N=CC2=C(O)CC(C)(C)CC2=O)c1-c1ccc(Cl)cc1,inconclusive: 40.1%
2,COc1ccccc1NC(=O)N1CCN(c2cccc(C(F)(F)F)c2)CC1,inactive: 95.2%
3,CCOc1ccc2nc(NC(=O)C3CCCN(S(=O)(=O)c4c(C)noc4C)C3)sc2c1 (stereo not given),inconclusive: 47.9%
4,O=C(Nc1nnc(SCC(=O)N2CCCCC2)s1)C1CCCCC1,inactive: 101%
5,COc1ccc(-c2nnc(SCC(=O)NC(=O)NCc3ccco3)o2)cc1,inactive: 86.8%
6,CC1Cc2ccccc2N1NC(=O)c1ccc(Cl)c(S(N)(=O)=O)c1 (stereo not given),inactive: 91.4%
7,COC(=O)C1=C(C)NC(C)=C(C(=O)OC)C1c1ccccc1[N+](=O)[O-],inconclusive: 14.3%
8,Cc1ccc(C(=O)Nc2ccc(Cl)cn2)cc1S(=O)(=O)N1CCOCC1,inactive: 81.5%
9,CCSc1nnc(NC(=O)c2ccccn2)s1,inconclusive: 20.8%
10,COc1ccc2nc(N3CCC(C)CC3)c(C#N)cc2c1,active: 26.8%
11,CCN1CCN(S(=O)(=O)Cc2ccccc2)CC1,inactive: 91.4%
12,O=C(NC1CCc2ccccc21)C1CCN(S(=O)(=O)c2ccc(-n3cnnn3)cc2)CC1 (stereo not given),inconclusive: 55%
13,CCCCCCc1ccc(-c2ncc(N)cn2)cc1,inconclusive: 56.7%
14,N#C/C(=C\c1ccc(O)c(O)c1)C(=O)NCCCc1ccccc1,inconclusive: 44.6%
15,C=C(c1ccc(O)cc1)c1ccc(O)cc1,inconclusive: 45%
16,O=C(CSc1nnc(-c2ccccc2)o1)N1CCc2ccccc2C1,inactive: 93.1%
17,C/C=C(/C(=C/C)c1ccc(O)cc1)c1ccc(O)cc1,inconclusive: 27.6%
18,CC(O)c1c(OCc2ccccc2)ncnc1OCc1ccccc1 (stereo not given),inactive: 93.8%
19,COc1ccc(-c2nnc(SCC(=O)Nc3sc4c(c3C#N)CCC4)n2CC2CCCO2)cc1 (stereo not given),inactive: 93.8%
20,O=C(Cn1c(=O)oc2ccccc21)Nc1ccc(S(=O)(=O)N2CCCCC2)cc1,inconclusive: 65.1%

row,SMILES,viability
1,O=C(NCCCN1CCCC1=O)C1CCN(S(=O)(=O)N2CCOCC2)CC1,inactive: 100%
2,C/C=C/COC(=O)c1[nH]c2c(c1C)C(=O)CC(c1ccc(N(C)C)cc1)C2 (stereo not given),inconclusive: 41.9%
3,CCOC(=O)N1CCN(C(=O)CSc2nnc(-c3cccc(Cl)c3)o2)CC1,inactive: 93.9%
4,Cc1cc(NC(=O)CCC(=O)N(CCc2ccccc2)C(C(=O)NC2CCCC2)c2ccco2)no1 (stereo not given),inactive: 99.2%
5,C=CCSC1=C(C#N)C(c2ccccc2C)CC(=O)N1 (stereo not given),inconclusive: 10.1%
6,COc1cc([C@@H]2c3cc4c(cc3[C@H](O)[C@H]3COC(=O)[C@H]23)OCO4)cc(OC)c1OC,inconclusive: 31.2%
7,Cc1ccccc1OCC(O)CN (stereo not given),inconclusive: 19.3%
8,Cc1ccc2cc(CN(CCN3CCCC3)C(=O)Nc3ccc(F)cc3)c(=O)[nH]c2c1C,inconclusive: 13.5%
9,CC1=C(C(=O)OCc2ccccc2)C(c2ccco2)n2ncnc2N1 (stereo not given),inactive: 112%
10,CC[C@]1(O)CC2CN(CCc3c([nH]c4ccccc34)[C@@](C(=O)OC)(c3cc4c(cc3OC)N(C=O)[C@H]3[C@@](O)(C(=O)OC)[C@H](OC(C)=O)[C@]5(CC)C=CCN6CC[C@]43[C@@H]65)C2)C1 (stereo not given in full),inconclusive: 26.5%
11,COc1cccc(C(=O)Nc2c(C(N)=O)oc3ccccc23)c1,inconclusive: 48.7%
12,Cc1cc(C(=O)CSc2nc3ccccc3n2CCC#N)c(C)n1Cc1cccs1,inconclusive: 31.7%
13,COC(=O)c1ccc(CSc2nc3ccccc3c(=O)n2Cc2ccco2)o1,inactive: 84.4%
14,CCOC(=O)NC1(NCc2ccccc2)Oc2ccccc2O1,active: 36.8%
15,CCCNC(=O)c1c(N)n(-c2cc(OC)cc(OC)c2)c2nc3ccccc3nc12,inconclusive: 57.6%
16,Cc1cc(C(=O)Nc2ccccc2C#N)n(-c2ccccc2)n1,inactive: 93.9%
17,COc1cc2cc(C(c3nnnn3C3CCCC3)N3CCCCCC3)c(=O)[nH]c2cc1OC (stereo not given),inconclusive: 59.1%
18,CCCNC(=O)c1cc(S(=O)(=O)N2CCc3ccccc32)ccc1F,inactive: 97%
19,O=C(Nc1ccc(-c2noc(-c3cccs3)n2)cc1)c1cccnc1,active: 32.9%
20,O=C(NCC(F)(F)F)Nc1cccnc1,inactive: 99.6%
